Experimental data as given in the supplement of paper PMC3334620.
Over roughly 33,000 sequences, “E-score (-0.5 to 0.5)” has its median near -0.054; the highest 2% begin near 0.39. The list shows a part of the results.

molecular target: Ylr278c (UniProt Q05854); assay: PBM E-score (8-mer binding enrichment) (E-score (-0.5 to 0.5)); higher = stronger / more preferred TF binding; most listed sequences are background and not binding sites; details: protein concentration: 200 nM; construct: GST-DNA-binding domain
Method: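 Universal 'all 10-mer' protein binding microarrays (Agilent AMADID 015681) probed with GST-tagged S. cerevisiae TFs (full-length or DBD) made by in vitro transcription/translation (PURExpress), about 100-200 nM. Bound TF was detected with fluorescent anti-GST. Each ungapped 8-mer (which stands for itself and its reverse complement) is scored by the PBM enrichment score (E-score), a modified Wilcoxon-Mann-Whitney statistic from -0.5 to +0.5, computed with the Universal PBM Analysis Suite. Scale: above 0.35 generally sequence-specific binding.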

Sequence | PBM E-score
CTCTCATA | -0.114
GTTACATA | -0.102
ACTTTGTG | -0.129
ACCAAATA | -0.126
CGCCACGA | -0.149
GCCTGCAC | -0.0969
ACGCGGGA | 0.242
TAATTGTA | -0.137
AGAACCTC | 0.025
CTGGGGAA | -0.225
ATCATCAC | -0.159
CCGTAGCG | 0.108
ACACCGTA | 0.102
ACTTCGCA | -0.14
CCTCATCC | -0.0905
CAGGTAGC | -0.116
TCAAGTGA | -0.226
CTACGGGC | -0.106
TCTCAGAA | -0.282
CAATGCGC | 0.0785
TGGGAAAA | -0.0945
AAGCATTA | -0.17
AATATTGA | -0.0962
CCCTACCC | -0.0521
GACGTGCA | -0.2

Sequence | PBM E-score
AGATGACT | -0.163
AGGCCTCG | -0.0844
AATATTCG | -0.0844
GCAAACGC | 0.174
GACGTATC | 0.014
CAATCTCG | -0.054
AAGGACGA | -0.156
ATGCTCCA | -0.0254
GAATTCGC | 0.253
AAAAGAGG | -0.234
CGACGCCG | 0.359
GCTTTGAC | 0.0283
ACCGGGCC | 0.293
ACCGACAC | 0.208
AGGTATAC | -0.135
TAGTAGGA | -0.00722
ACTAACAA | -0.122
TCCAACAA | -0.134
GACGGGAA | 0.13
GAAGTCCC | 0.132
CATTTCTA | 0.0511
AGAGTTGA | -0.0371
AGATTTCG | 0.126
TGTACCAA | -0.217
ACCGGCCG | 0.392

Sequence | PBM E-score
GAACCCAC | 0.0897
ATGATACG | -0.0732
CTCTGGCC | -0.161
GTGACCAA | -0.0816
ATTGGCTA | -0.0824
GTAACGTA | -0.214
CTTTATCC | 0.216
CAAGCAAC | -0.101
ACCGAAGA | 0.183
CTCGGCAA | 0.23
AATTCTAG | -0.114
AATCAATT | 0.0644
AGGATACC | -0.042
AGGCACTA | -0.195
ATACGTCC | 0.135
AGCTAGCG | -0.114
AGTTTAGA | 0.198
AAACACGT | -0.056
AGGTGGAA | 0.0674
CCTATAAG | -0.184
ACAAGTCG | -0.309
ACAGATCC | 0.217
AGTCCTGC | -0.116
CTGAGCAC | -0.274
CCCCCTGC | -0.14

Sequence | PBM E-score
AACTATCT | -0.092
AAGGGGTC | -0.238
GCAGACGC | -0.031
GAGGTACA | -0.183
CTCGTCGA | -0.096
GCCTCCCC | -0.0962
AACTGAAT | -0.225
CTATTCGC | -0.123
GTAATCAA | -0.0372
CGACATTC | 0.0686
AGAGTACT | -0.234
CAACTTGG | -0.0729
AGGGTGAG | -0.217
AGGGTGAC | -0.0591
GACCTTAA | -0.133
CTATATCC | 0.0935
ATATCCTC | -0.0585
ATTCATAA | 0.00513
CCGCACAG | 0.213
CGGCAAGC | 0.163
CCCTGGCG | -0.00188
CTCGTGCC | -0.093
AGGCAATG | -0.176
CCATGACA | -0.194
CTGCTGGA | -0.261

Sequence | PBM E-score
ACCTATTA | -0.081
ATAAACTC | 0.149
CAGTATCG | 0.0195
ACAAGCCA | -0.206
CCGATAGA | 0.283
CCTTTAGA | -0.232
CAACAACG | -0.154
CAGTAAAA | 0.0198
ATCGTGAA | 0.00733
ACGGTATC | 0.0343
AACGGCCC | -0.0319
CCAGAAAA | -0.0107
CTAATGAC | -0.308
CCGTGGTA | 0.0176
CATCATAA | -0.163
GCAATAGC | 0.027
CGCAATGA | -0.0665
ATCAGTAA | -0.145
CTTCTTCA | -0.168
GGTCGACC | 0.279
CATGCCCG | 0.254
GCAAAATA | 0.00912
TAAGAATA | -0.249
ATGCGTCG | 0.00978
AGAATAAA | 0.0309

Sequence | PBM E-score
ACAGAGTG | -0.253
AATGATAT | -0.0192
GTGCCTAA | -0.242
GACGGCTA | 0.0163
AGGGACAT | -0.0607
AGCGACCG | 0.0561
AACGGCGG | 0.253
CAACAGGG | -0.0988
CTTGTTCA | -0.126
ATAACGAA | -0.0773
CCGTACGG | 0.201
ACAGTGGG | -0.158
AAAGTATA | -0.153
ACCTCCGC | 0.425
CAGACCAA | -0.0653
CAAGGTTA | -0.15
AATAATTG | -0.0426
CAAGCACA | -0.298
GTCGTGAA | -0.135
TGCCAGCA | -0.0947
GCGGTACC | 0.115
GAATTAGC | 0.00979
GAGATCAC | -0.105
AAAGTAAT | 0.102
AGAAGTAC | -0.273

Sequence | PBM E-score
TGCGCAAA | 0.125
AACACACA | -0.214
TCACAGCA | -0.0696
ATACAATA | 0.137
ACCCTCGC | -0.0907
CATGAGAG | -0.135
AGGCGTTG | -0.136
ACACCTCC | 0.14
GTGGATCA | -0.19
ACCAATCT | -0.0408
CTGATGAC | -0.222
GCGGATGA | 0.207
AACCTCCC | 0.0351
CGGTGATA | 0.216
GGAATTTA | 0.3
AAGCAACT | -0.186
CTATCGCC | -0.117
CAGATTCC | 0.216
CGCTAATC | 0.0897
CCGTTAGC | -0.00457
AAAAAACG | 0.00663
AAATCGTG | 0.0679
TACCGCGA | 0.176
GTGAAAGA | -0.0289
CTGACCTC | -0.0797

Sequence | PBM E-score
AGTAGTTG | -0.00509
ATCAGAAG | -0.123
AGGCAGCG | -0.0733
CACCTCAC | 0.0836
CTTGTATC | -0.178
GCCGGACC | 0.376
GATGTCCA | -0.0382
TGAGTGAA | -0.0748
GTAGGGCA | -0.038
ATCCCTTG | -0.22
CAAGGAAG | -0.0653
GAGATACC | 0.0878
ATCCCACA | -0.156
ATTCAGCC | -0.0641
ACGGGGTC | 0.215
ACGGCGCA | 0.162
CGAAAGAC | 0.133
GGTGTAAC | 0.121
CATTAGTC | 0.0466
ACCGTTGG | -0.056
ACATGAGG | -0.224
CTTTTACA | 0.0358
GCAGGCCA | -0.171
GAATATGA | -0.0336
AGGGTCTA | -0.0719

Sequence | PBM E-score
GAAAGAGC | -0.0143
CCCAAACG | -0.13
ATGCACGG | 0.175
CCCACGGC | 0.0615
CGCTTCAG | 0.0182
GCACCTCA | -0.00496
CATCTTAA | -0.105
CGAGGTAG | -0.0404
AACCTGAG | -0.106
CTCAACGC | -0.253
AAATGACG | -0.0163
ACAACCCA | 0.0408
AGTGCATC | -0.0992
AAGGGAGG | -0.049
AAGGCGGA | 0.379
CGTCGACG | 0.2
GTAGTTGA | -0.0594
CATGCGGA | 0.317
CCAGGATA | -0.177
AGTGCACC | 0.0387
ACACACAG | -0.189
ACGTTATA | -0.148
ATGATGAG | -0.171
CGCACCCA | -0.1
CAGCACGC | -0.0616

Sequence | PBM E-score
GTCTACTA | -0.0894
ACAACGGC | 0.0852
CAAAATAG | -0.0851
AGCGACAG | 0.0279
AGCATGGA | -0.201
CATCAAGA | -0.0517
AACGTAAC | -0.164
AAAAGTCT | -0.193
TGAATACA | -0.0137
AAGTCGTA | -0.288
ATATATCG | 0.194
ACTCCCTG | -0.139
GGGGGCAA | -0.181
CAGACCTC | -0.0869
CAGGGCAA | -0.101
AGTCAACA | -0.216
GTACAATA | -0.196
TACGGCGA | 0.175
AGAGCATC | -0.0667
GGCGGCGA | 0.306
CCGAGTAC | 0.238
CCTATAAC | -0.286
CACCCGAG | -0.0153
ACTTGGCT | -0.241
AGCTATTC | -0.0803

Sequence | PBM E-score
GGCGCTCA | 0.109
CTAACAGA | -0.0664
GATCTCCC | 0.113
ACAACAAT | -0.0912
ATGCAGTC | -0.252
AGCTCCTG | -0.0626
AATAAAGG | -0.223
TGAGTTAA | -0.24
CCCAAGAG | -0.231
AGGGCACC | -0.13
AGAAGCCG | 0.241
AGCGACTC | -0.142
GTGGTGTA | -0.161
GCTAGTCA | -0.197
CGCAGAGA | -0.193
GGTGAAAA | 0.223
AATAAATA | 0.181
AGAGGGGC | -0.281
GCTGTAAC | -0.0124
AATCACCC | -0.0315
AAAGATAC | -0.0541
ACCGCCTC | 3e-05
AAGGCAAC | -0.135
ACGGGACA | 0.167
CAGATTTA | 0.00436

Sequence | PBM E-score
AAGGTCGC | 0.191
ACAGATCT | -0.152
CTATTCAG | -0.197
AATTGAGG | -0.0607
AAGATCCT | -0.0497
GCCCAAGA | -0.231
ATATATCA | -0.126
GTGCATAA | -0.0366
GTGGTCCA | -0.103
ACCAAACT | -0.0836
ACCATGAA | 0.00221
AGTTGGCC | -0.107
GCTTCCAC | -0.0744
CGGGCGCC | 0.156
ATGCCAGA | -0.22
ATTAGATG | 0.0723
CATTCAAC | -0.216
TAAGGGAA | -0.337
CATCCGGC | 0.354
TTAAAGAA | -0.0554
CGTTATAC | -0.218
CCTCGGCC | 0.208
ACACCCAC | -0.0479
CAAATAAG | 0.0116
AGTAACTA | 0.0258

Sequence | PBM E-score
TCACTAGA | -0.0693
CTTAGTCC | 0.118
CGTGTGGA | 0.0441
TAGCCGAA | 0.141
TACCGCTA | -0.0523
AGAACCGC | 0.0176
AGACACTC | -0.184
CAGTAATG | -0.185
ATACTCTA | -0.0612
GTCGCCGA | 0.244
AACCCGTC | -0.0153
GCAGTAAC | -0.161
ACTTCAAC | -0.0372
AAAAACTA | -0.0189
GAGACACA | -0.0728
CAGGGATC | -0.153
GACAAATA | 0.1
AGGACTCG | -0.213
TGATTGCA | -0.0457
ACCCGCAC | 0.159
CAGACGGG | -0.0456
AGGATTGC | -0.131
AAATCCCG | 0.426
CGCCGCTC | 0.242
ATGATATC | -0.0378

Sequence | PBM E-score
ATGAGCCA | -0.195
CCCCACGC | -0.208
CCCGCCTA | 0.166
GGATTAAC | 0.19
AATAAGAC | -0.228
CGTCTAGC | -0.186
AAGCCCGA | 0.27
CGAGAATC | 0.00888
ATCGACCA | -0.326
ACACAATC | 0.0663
TGTCAGAA | -0.26
GCTACAAA | -0.0551
ACGTTGAA | -0.0117
ATGCAACC | -0.0762
CACTATTC | -0.0246
CATGCACG | -0.181
AAGGATGA | -0.272
AAGTTCGG | 0.28
CTGGACCA | -0.213
